Data from a compilation of properties of binary mixtures (doi:10.1590/0104-6632.20180352s20160280).
The densities may have been worked out from excess volumes.

Assay: xn = mol fraction of the nth substance listed
Conditions: 100 kPa

O=C[O-].OCC[NH2+]CCO + O
mass density [kg/m3]
Conditions	x1 = 0.0292	x1 = 0.075	x1 = 0.1516	x1 = 0.2184	x1 = 0.3185	x1 = 0.5155	x1 = 0.5932	x1 = 0.7378	x1 = 0.7987	x1 = 1
293.15 K	1043	–	1133.4	1156	–	1194.6	1196.1	1204	1205.3	–
303.15 K	–	1085.5	1128.5	1150.8	1169.9	1189.4	1190.7	1198.5	–	1205.7
313.15 K	1035.2	–	1123.4	1145.4	1164.6	1183.7	1185.2	1193.2	1194.4	1200.2
323.15 K	1030.6	1075.4	1118.2	1139.9	1159.4	1178.4	1179.9	1187.7	1189	1194.7
333.15 K	1025.6	1070.2	1112.6	1134.4	–	1172.9	1174.1	1182.3	–	1189.3
343.15 K	1020.1	1064.7	1106.9	1128.8	1147.7	1167.2	–	1176.7	1178.2	–
